Reference: PubChem BioAssay AID488969 (Vanderbilt High Throughput Screening Facility, 2010)
Whole data set: some 110,000 compounds, median “z-score” near -0.1, cut for the highest 2% near 2. This is one part of the list. The source made the active and inactive calls.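 Rule for the calls: active = z-score in the third read window above 3 or below -3; inactive = the rest.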

The compounds below were run against Metabotropic glutamate receptor 8 (Rattus norvegicus) (UniProt P70579) (assay: mGluR8 Gi/Go-coupled signaling modulation – cell-based, rat, thallium flux, HTS, primary screen (AID 488969)). Settings: HEK293 rat mGluR8, GIRK (G protein-gated inwardly rectifying potassium channel) thallium flux, FluoZin2; at 10 µM; stronger effect = higher value; submaximal glutamate (EC20) added with thallium.
UniProt P70579, sequence (P70579 whole entry, looked up): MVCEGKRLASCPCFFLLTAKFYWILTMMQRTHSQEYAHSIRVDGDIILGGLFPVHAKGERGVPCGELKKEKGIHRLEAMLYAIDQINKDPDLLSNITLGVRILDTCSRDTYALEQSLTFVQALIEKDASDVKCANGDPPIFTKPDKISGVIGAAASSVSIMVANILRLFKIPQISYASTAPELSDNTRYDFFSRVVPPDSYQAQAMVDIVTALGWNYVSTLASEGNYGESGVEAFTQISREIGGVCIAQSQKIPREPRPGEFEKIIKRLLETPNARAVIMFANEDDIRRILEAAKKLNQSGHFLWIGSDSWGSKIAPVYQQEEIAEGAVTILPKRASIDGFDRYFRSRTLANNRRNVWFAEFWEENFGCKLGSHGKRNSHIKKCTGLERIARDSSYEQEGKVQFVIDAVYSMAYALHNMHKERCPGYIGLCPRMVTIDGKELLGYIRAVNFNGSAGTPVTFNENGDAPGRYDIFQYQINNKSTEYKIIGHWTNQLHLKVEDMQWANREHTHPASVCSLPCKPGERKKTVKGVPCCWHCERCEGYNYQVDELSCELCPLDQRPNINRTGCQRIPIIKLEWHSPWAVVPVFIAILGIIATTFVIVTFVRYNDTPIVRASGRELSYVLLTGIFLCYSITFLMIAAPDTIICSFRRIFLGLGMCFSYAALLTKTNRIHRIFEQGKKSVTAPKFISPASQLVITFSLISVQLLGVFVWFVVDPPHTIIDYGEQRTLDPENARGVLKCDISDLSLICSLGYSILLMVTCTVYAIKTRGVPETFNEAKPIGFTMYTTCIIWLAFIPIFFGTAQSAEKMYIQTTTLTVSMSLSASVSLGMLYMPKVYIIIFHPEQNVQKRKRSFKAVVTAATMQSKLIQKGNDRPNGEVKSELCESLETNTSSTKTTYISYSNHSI

Compared with `CC(=O)c1c(COC(=O)c2ccncc2)nc2ccccc2[n+]1[O-]`, `CCOC(=O)C1=C(C)Nc2nc3ccccc3n2C1c1ccncc1` (stereo not given) is higher in z-score: -0.077 for the first, 0.18 for the second.

Compared with `CCN(CC)CCNS(=O)(=O)c1ccc2[nH]cc(C(=O)O)c(=O)c2c1`, `CC(=O)NCCc1cc2ccc(C)cc2[nH]c1=O` is lower in z-score: -0.0272 for the first, -0.381 for the second.

Compared with `CC(C)/C(=N\NC(=O)Nc1ccccc1)c1ccccc1`, `Cc1cccc(NC(=O)NC(=S)NC(=O)c2ccccc2)c1` is higher in z-score: -0.107 for the first, 2.86 for the second.

Compared with `COc1ccc(Nc2nc3ccccc3nc2-n2nc(C)cc2C)cc1`, `COc1ccc(-n2c(=S)[nH]c3ccccc32)cc1` is higher in z-score: -0.0719 for the first, 1.9 for the second.

Going from `CCOC(=O)c1cc(CN2CCOCC2)oc1-c1ccccc1` to `O=C(NCCN1CCOCC1)C1CCC(=O)N1Cc1ccccc1Cl` (stereo not given), the z-score rises from -0.972 to -0.22.

Compared with `O=C(Cc1ccccc1)NCC(=O)OCC(=O)c1cccc([N+](=O)[O-])c1`, `CCOC(=O)C/C(C)=N/NC(=O)C1CC1(c1ccccc1)c1ccccc1` (stereo not given) is lower in z-score: -0.184 for the first, -1.09 for the second.

Going from `O=C(Nc1ccc(O)c(-c2nc3ccccc3o2)c1)C1(c2ccc([N+](=O)[O-])cc2)CCCC1` to `Cc1cc(OCC(=O)Nc2ccc3oc(-c4ccncc4)nc3c2)ccc1Cl`, the z-score rises from -0.206 to 0.0332.

Compared with `CCN(CC)c1ccc(C=Nc2cc(C)ccc2C)c(O)c1`, `C/C(=N\NC(=O)COc1ccc(C)cc1C(C)C)c1cc2ccccc2o1` is lower in z-score: -0.151 for the first, -0.17 for the second.

Going from `CCOC(=O)C1CCCN(S(=O)(=O)c2ccccc2)C1` (stereo not given) to `CC1(Br)C2CCCC1C2S(=O)(=O)c1ccccc1` (stereo not given), the z-score falls from -0.0639 to -0.376.

First: CCN(CC)c1ccc(C2C(C(=O)OC(C)C)C(=O)CC(C)(O)C2C(=O)OC(C)C)cc1 (stereo not given)
Second: COc1ccc(CNC(=O)C2CSC(c3ccc(OC)cc3)N2C(C)=O)cc1 (stereo not given)
The z-score of the first is lower: -0.488 for the first, 0.415 for the second.

First: Cc1ccnc2c(N3C(=O)C4C5C=CC(C5)C4C3=O)cccc12 (stereo not given)
Second: O=C1[C@H]2[C@@H](C(=O)N1c1cccc3ccccc13)C1(C(=O)c3ccccc3C1=O)N1CCC[C@@H]21
The z-score of the first is higher: 0.571 for the first, -0.278 for the second.

Going from `Cc1ccc(S(=O)(=O)N2CCN(C(=O)CN3C(=O)NC4(CCOc5ccccc54)C3=O)CC2)cc1` (stereo not given) to `O=C(c1cc(-c2cccs2)nc2ccccc12)N1CCN(S(=O)(=O)c2cccc(F)c2)CC1`, the z-score falls from 0.106 to 0.0151.

Compared with `CCOC(=O)c1cccc(P(C)(C)=O)c1`, `CCOC(=O)c1c(C)nc(-c2ccccc2)nc1NC(=O)C(C)C` is lower in z-score: -0.00457 for the first, -0.21 for the second.

First: O=C(Nc1cccnc1)c1ccc(S(=O)(=O)N2CCCCCC2)cc1
Second: O=C(NCc1ccco1)c1ccc(S(=O)(=O)N2CCOCC2)cc1
The z-score of the first is higher: 0.612 for the first, 0.0332 for the second.

Going from `CC(C)C(O)(C#CCN1CCCCC1)c1ccccc1` (stereo not given) to `COc1ccccc1N(CC(=O)N1CCCCCC1)S(C)(=O)=O`, the z-score falls from 1.95 to 0.103.

Going from `COc1cccc(C(=O)Nc2ncc3c(n2)CC(C)(C)CC3=O)c1` to `COc1ccc(C(=O)Nc2cccc(C)c2)cc1S(=O)(=O)N1CCOCC1`, the z-score falls from 0.57 to 0.129.

First: Cc1c(C(=O)O)sc2ncnc(N3CCCCC3C)c12 (stereo not given)
Second: CC(=O)Nc1sc2c(c1C(N)=O)CCCC2
The z-score of the first is lower: -0.514 for the first, 0.39 for the second.

First: CCN1CCN(CC(=O)N2c3ccccc3CC2C)CC1 (stereo not given)
Second: O=C(c1ccccc1)N1CCN(CC2CC=CCC2)CC1 (stereo not given)
The z-score of the first is higher: 0.0687 for the first, -0.214 for the second.

Compared with `S=C(NC1CCCCC1)N1CCN(c2ccccn2)CC1`, `NC(=O)C1(N2CCCCC2)CCN(C(=O)c2cccs2)CC1` is higher in z-score: -0.808 for the first, -0.0357 for the second.

Going from `Cc1cc(C)cc(NC(=O)CN2C(=O)NC(C)(c3ccccc3)C2=O)c1` (stereo not given) to `Cc1cc(C)cc(NC(=O)CN(Cc2ccccc2)S(C)(=O)=O)c1`, the z-score falls from -0.178 to -0.327.

First: COC(=O)Cc1cc(OC)c(OC)cc1Cc1cc(OC)c(OC)cc1CC(=O)OC
Second: COc1cc(C(C)=O)ccc1COc1ccc(C(=O)OCC(N)=O)cc1OC
The z-score of the first is higher: 0.0334 for the first, -0.313 for the second.

First: CCCCOC(=O)c1ccc(NC(=O)c2cc(Cl)ccc2OC)cc1
Second: CCCCOC(=O)c1ccc(NC(=O)c2ccccc2OC)cc1
The z-score of the first is higher: -0.0115 for the first, -0.0471 for the second.

Compared with `CCOC(=O)c1cn[nH]c1N`, `CCOC(=O)Cc1cc(=O)n2[nH]c(C)cc2n1` is higher in z-score: -0.543 for the first, -0.169 for the second.

Going from `COc1ccccc1CN=C1NC(=O)C(CC(=O)Nc2ccc(OC)c(OC)c2)S1` (stereo not given) to `COc1ccc(NC(=O)C2CCCN2C(=O)NCc2ccccc2)cc1OC` (stereo not given), the z-score rises from -0.818 to 0.285.

First: O=C(NCCc1ccccc1)C1CCN(S(=O)(=O)c2cccc3nonc23)CC1
Second: Cc1cccc(C)c1NC(=O)C(c1ccccc1)N1CCC1=O (stereo not given)
The z-score of the first is lower: -0.491 for the first, -0.175 for the second.

Going from `COc1ccnc(N2CCN(c3ccccc3)CC2)c1C#N` to `CC(NC(=O)c1cccs1)C(c1cccs1)N1CCN(c2ccccc2)CC1` (stereo not given), the z-score falls from 0.0026 to -0.641.

First: O=C(NC1CC1)c1scc2c1OCCO2
Second: O=C(Nc1ccc2c(c1)OCCO2)C1c2ccccc2C(=O)N2CCc3ccccc3C12 (stereo not given)
The z-score of the first is higher: -0.134 for the first, -0.455 for the second.

Compared with `CCc1nnc(NC(=O)CN2C(=O)/C(=C/c3cc(OC)c(OC)c(OC)c3)SC2=S)s1`, `COc1cc(NC(=O)CCNC(=O)Cn2cnc3ccccc3c2=O)cc(OC)c1OC` is higher in z-score: -0.315 for the first, 1.08 for the second.

Going from `CC(C)c1ccc(S(=O)(=O)c2cc3cc(Br)ccc3oc2=O)cc1` to `Cc1ccc(S(=O)(=O)NCC(=O)N(CC(=O)NCc2ccco2)Cc2cccs2)cc1`, the z-score rises from -0.49 to -0.406.

First: COc1cc(NC(=O)C2=C(N3CCOCC3)/C(=C\c3ccc(Cl)cc3Cl)CC2)cc(OC)c1OC
Second: COc1cccc(C2c3c(oc4ccc(F)cc4c3=O)C(=O)N2CCN2CCOCC2)c1OC (stereo not given)
The z-score of the first is higher: 0.0434 for the first, -0.574 for the second.

Compared with `CCc1c(C)nc2ccc(Br)cc2c1Cl`, `Cc1n[nH]c(C)c1N=Nc1cc(Cl)ccc1Cl` is lower in z-score: -0.0836 for the first, -0.193 for the second.

First: CC(=O)C(C)Oc1ccc2c3c(c(=O)oc2c1C)CCCC3 (stereo not given)
Second: Cc1ccc(CSc2nc3c(c(=O)[nH]2)CCC3)cc1
The z-score of the first is higher: -1.13 for the first, -1.9 for the second.

Compared with `CCCCC(=O)Nc1nc(C)c(-c2csc(Nc3ccccc3OC)n2)s1`, `Cc1ccccc1OCC(=O)NC(=S)Nc1ccc(Br)c(C)n1` is higher in z-score: -0.17 for the first, 0.414 for the second.

Compared with `CCCOc1cc(C)c(S(=O)(=O)NC2CC(C)(C)NC(C)(C)C2)cc1C`, `CCOC(=O)N1CCN(S(=O)(=O)c2ccc(F)c(C(=O)Nc3cc(C)cc(C)c3)c2)CC1` is lower in z-score: 1.57 for the first, -0.295 for the second.

Going from `COc1cc2cc(CN(CCc3ccccc3C)C(=S)NCCCN(C)C)c(=O)[nH]c2cc1OC` to `Cc1cccc2cc(CN(Cc3ccccc3)C(=O)c3cccc(F)c3)c(Cl)nc12`, the z-score falls from 0.66 to -0.49.

Going from `Cc1ccccc1OC(=O)Cn1c(C(F)(F)F)nc2ccccc21` to `Cc1ccc(-c2noc(COc3ccccc3C)n2)cc1`, the z-score rises from -0.186 to 0.286.

First: Fc1ccc(N2CCN(c3ccc4c(C(F)(F)F)cc(C(F)(F)F)nc4n3)CC2)cc1
Second: O=S(=O)(Nc1cccnc1)c1ccc(Cl)c(C(F)(F)F)c1
The z-score of the first is lower: -0.261 for the first, 0.0113 for the second.

Going from `C=C(C)C1CC=C(CN2CCC(C(=O)OCC)CC2)CC1` (stereo not given) to `N#Cc1cc2c(nc1SCC(=O)N1CCCCC1)CCCCC2`, the z-score falls from 0.503 to -0.17.

Compared with `CCOC(=O)c1c(-c2cccs2)csc1NC(=O)CSc1ncn[nH]1`, `CCOC(=O)c1c(NC(=O)CSc2nnc3c(n2)[nH]c2ccccc23)sc2c1CCN(C)C2` is higher in z-score: -0.402 for the first, -0.225 for the second.

Going from `CCOC(=O)c1ccc(N=Cc2nc(-c3ccccc3)oc2OC(C)=O)cc1` to `O=C(Oc1ccc2c(c1)C(=O)c1ccccc1CO2)c1ccccc1`, the z-score falls from -0.456 to -0.673.

Compared with `CCCc1nc(NCc2ccc3c(c2)OCO3)c2nnn(Cc3ccccc3Cl)c2n1`, `CCc1ccc(CCC(=O)Nc2ncc(Cc3ccccc3Cl)s2)o1` is lower in z-score: -0.0876 for the first, -0.492 for the second.

First: O=C(CCn1c2c(c3ccccc31)CCCC2)NNC(=O)c1ccccc1Cl
Second: O=C(CNC(=O)C1CCCCC1)Nc1ccccc1Cl
The z-score of the first is higher: 0.468 for the first, -0.138 for the second.

First: CN(Cc1ccccc1)C(=O)c1cccc(N2C(=O)NC3CC2(C)Oc2ccccc23)c1 (stereo not given)
Second: CN(Cc1ccccc1)C(=O)CSc1nnc(-c2ccco2)n1-c1ccccc1
The z-score of the first is lower: -0.383 for the first, -0.258 for the second.

Going from `COC(=O)C(C(=O)Nc1ccccc1C)C1CCCC1` (stereo not given) to `c1ccc(-n2cccc2CNC2CCCCC2)cc1`, the z-score rises from -0.14 to 2.02.

First: COc1ccc(N(C(=O)COc2ccccc2)C2C=CS(=O)(=O)C2)c(OC)c1 (stereo not given)
Second: COc1ccc(CNc2ccccc2)cc1Br
The z-score of the first is lower: -0.438 for the first, -0.14 for the second.

Compared with `c1ccc(-n2nnnc2SCc2cccc(CSc3nnnn3-c3ccccc3)n2)cc1`, `O=c1nc(N(c2ccccc2)c2ccccc2)[nH]c(=O)[nH]1` is higher in z-score: -0.941 for the first, -0.611 for the second.

First: COc1ccc(Cn2c(C)c(C)c(C#N)c2NC(=O)Nc2cccc(Cl)c2)cc1
Second: CCOc1ccc(N(CC(=O)Nc2ccc(C)cc2)S(=O)(=O)c2c(C)noc2C)cc1
The z-score of the first is higher: -0.0483 for the first, -0.0886 for the second.

Compared with `C/C(Cl)=C\Cn1c(Nc2ccc(C)cc2)nc2c1c(=O)n(C)c(=O)n2C`, `O=C1c2ccc3c4c(ccc(c24)C(=O)N1Cc1cccnc1)C(=O)N(Cc1cccnc1)C3=O` is higher in z-score: -0.373 for the first, -0.223 for the second.

Compared with `O=S(=O)(Cc1ccccc1Cl)Nc1ccccn1`, `O=S(=O)(c1ccc(Br)s1)N1CCN(c2ncccn2)CC1` is lower in z-score: 1.91 for the first, -0.48 for the second.

Compared with `O=C(NCc1ccco1)c1ccc2snnc2c1`, `COc1cccc(C(=O)c2c[nH]c(C(=O)NCc3ccco3)c2)c1` is lower in z-score: 0.448 for the first, -0.00435 for the second.

First: O=C(NNC(=S)Nc1ccc(F)cc1)c1ccccc1OC(F)F
Second: CN1CCN(C(=O)c2cn(-c3ccccc3)nc2-c2cccnc2)CC1
The z-score of the first is higher: -0.00644 for the first, -0.051 for the second.

Going from `O=S1CCCSC1c1cccnc1` (stereo not given) to `Cc1c(/C=N/N=C2\CCC3C4CCc5cc(O)ccc5C4CCC23C)cnn1C` (stereo not given), the z-score rises from -0.0374 to 0.0219.

Going from `COC(=O)c1c(N(S(C)(=O)=O)S(C)(=O)=O)sc2c1CCN(c1ncc(C(F)(F)F)cc1Cl)C2` to `ON=C1CCN(c2ncc(C(F)(F)F)cc2Cl)CC1`, the z-score falls from 0.174 to -0.0465.

First: COC(=O)NNC(=O)COc1ccc(Br)c(C)c1
Second: O=C(COc1cc(Cl)ccc1Cl)Nc1nnc(CC(=O)N2CCOCC2)s1
The z-score of the first is higher: -0.0617 for the first, -0.147 for the second.

With `CN(C)CCNC(=O)c1cc2c(s1)-c1ccccc1OC2` the z-score was active: 3.28.
`CN=c1scc(-c2cccs2)n1/N=C/c1ccc(O)c(O)c1O` was tested, and the z-score was active: 3.01.
